# The list shows a part of the results. The full chains were built here from the parent and the listed change. Values near 0.05 are background.
# B1: TEV protease; numbered along this chain (parent)
# chain: MGESLFKGPRDYNPISSSICHLTNESDGHTTSLYGIGFGPFIITNKHLFRRNNGTLVVQSLHGVFKVKDTTTLQQHLVDGRDMIIIRMPKDFPPFPQKLKFREPQREERICLVTTNFQTKSMSSMVSDTSCTFPSGDGIFWKHWIQTKDGQCGSPLVSTRDGFIVGIHSASNFTNTNNYFTSVPKNFMELLTNQEAQQWVSGWRLNADSVLWGGHKVFMVKPEEPFQPVKEATQL
# Variants of: B1
# Experiment: raw area under fraction-flipped curve 0-4 h after induction (AUC4h, not background-subtracted), DNA-recorder readout of cleavage of the substrate (dimensionless); higher = more cleavage of the substrate by the protease variant
# Settings: temperature: 34 °C; time window: 0-4 h after rhamnose induction
# Method: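 In vivo DNA recorder in E. coli TOP10(DE3) ΔrhaA at 34 °C. Each TEVp single-site mutant (parent TEVp 0) is paired with a single-site variant of the 7-mer TEVs (canonical ENLYFQ|S). The substrate sits between flexible linkers in a Bxb1-sfGFP-TEVs-SsrA fusion, so cleavage stabilises Bxb1 and speeds flipping of a recombination array, read by NGS. The value is the raw area under the fraction-flipped curve over 0-4 h after rhamnose induction (AUC4h), with ≥20 reads per time point. It is not background-subtracted; inactive controls average about 0.047.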
# 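Also: Bxb1 expression induced with 0.2% (w/v) L-rhamnose at OD600 near 0.5, cultures sampled hourly, flipped fraction per protease–substrate barcode pair counted by paired-end Illumina sequencing.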
Variant,area with substrate ENLYFAS,area with substrate ENLYFES,area with substrate ENLYFFS,area with substrate ENLYFHS,area with substrate ENLYFIS,area with substrate ENLYFMS,area with substrate ENLYFNS,area with substrate ENLYFPS,area with substrate ENLYFRS,area with substrate ENLYFTS,area with substrate ENLYFVS,area with substrate ENLYFWS,area with substrate ENLYFCS,area with substrate ENLYFGS,area with substrate ENLYFKS,area with substrate ENLYFSS,area with substrate ENLYFYS,area with substrate ENLYFDS,area with substrate ENLYFLS
H215D,0.0584,0.0615,0.073,0.0542,0.0625,0.0564,0.0635,0.0498,0.0581,0.0385,0.0576,0.0561,,,,,,,
H215W,0.0474,0.059,0.0714,,0.0554,0.0535,0.0617,0.056,0.0476,0.0597,0.0538,0.0582,0.0464,0.0567,0.0607,0.0642,0.0455,,
E223T,0.0621,0.0597,0.0674,0.0409,0.0612,0.0644,0.0715,0.0593,0.0721,0.0281,0.0435,,,,0.0535,0.0559,,0.0653,0.0563
V183T,0.06,0.0556,0.0728,0.0522,0.0559,0.0596,0.0621,0.0608,,0.0722,0.0624,0.0628,0.0464,,,0.0569,,0.0638,0.0631
F226W,0.0656,0.0666,0.0703,0.0567,0.0565,0.0767,0.0736,0.0566,0.0359,0.0611,0.0566,0.0516,0.0604,,0.0636,0.0665,0.0584,0.0735,0.0564
S171E,0.0384,0.0497,0.055,,0.0577,0.0655,,,,0.06,,0.033,,0.0569,0.0621,0.0577,,,0.0576
P225F,0.0233,0.0747,0.0666,0.0685,0.0549,0.0683,,,,0.0444,,0.0931,0.0708,,,0.0493,,,0.055
P225I,0.0641,,,0.0576,0.0532,,,0.0617,,0.0492,0.0723,,0.0565,,,0.0696,,,0.0406
T181L,0.0474,0.0506,,0.0582,0.0553,0.0629,,0.0459,0.0805,,,,,0.0514,,0.0397,,0.042,
P222S,0.0625,0.0699,0.0699,0.0578,0.054,,,0.0592,,0.064,0.035,,,,,0.0614,,0.0605,
P222C,0.0603,0.029,0.0674,,0.059,0.0611,0.0579,0.0577,0.0625,0.0539,0.0606,0.0469,0.0413,,0.0645,,0.0734,0.052,0.0624
M219V,0.0611,0.0682,0.0677,0.0618,0.0535,0.0617,0.072,0.0545,0.0794,0.0595,0.046,0.0581,0.0552,,0.066,0.066,0.0553,0.0531,0.0628
M219E,0.0562,0.0608,0.0672,0.0504,0.0537,,0.0599,0.065,0.0605,,0.0561,0.0544,0.0641,0.0564,0.0716,,0.0543,0.0469,0.0761
